B1: CPEB3 Ribozyme (parent)
chain: UAACAGGGGGCCACAGCAGAAGCGUUCACGUCGCAGCCCCUGUCAGAUUCUGGUGAAUCUGCGAAUUCUGCUGUAUAUCUC

Read counts are not given, so values of variants with three or more changes are uncertain.

Variants of B1 are the subject of the data set. Put plainly: self-cleavage, relative activity (ratio to wild type); higher = more cleavage; in vitro, sequencing. The method, boiled down: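 Relative activity compares each variant's cleaved/total read fraction with that of the unmutated ribozyme. To get these fractions, barcoded CPEB3 ribozyme libraries from rounds of error-prone PCR were transcribed with T7 RNA polymerase for 5 hours at 37°C and then given 15 min of DNase I treatment before EDTA was added. The RNAs were reverse transcribed with template switching and sequenced on Illumina, and DNA sequencing linked barcodes to variants. A minimum of 5 reads applied, and three batches were averaged.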
Turning to A21G U26A U31C U66C, the self-cleavage was determined as 0.49.
The figure for C23G U41C U48C C50G U69A A75G is 0.08.
Take A21G U49C U54A U60A: the self-cleavage came to 0.06.
As to C23A U51A U80C, the self-cleavage is 0.19.
The figure for A21G U25C U31C G33A U41C A65G U66G is 0.08.
In the case of C23U G55A G61A U72C A75U it was 0.07.
The figure for G24A G33U A64G U69A is 0.12; for A21U U60C G63U it is 0.2.
For the variant G22A G42A A57G A65G A75G A77G, the self-cleavage worked out at 0.04.
C23U A28U A57G: the self-cleavage is 0.1.
Consider A21G U41C U43C U60A A75U U76A, for which the self-cleavage worked out at 0.25.
For the variant A21G U26C G42U U54A U67A, the self-cleavage came to 0.07.
On to A21U U48C U60C, for which the self-cleavage was 0.12.
As to C23U U25C C38A U43C U54G A64G, the self-cleavage was 0.09.
The figure for C23A C34U U60C is 0.08; for A21U C44G U74C it is 0.26; for A21G U26A A64G it is 0.24.
As to A21G U41A U60C A77C, the self-cleavage was found to be 0.06.
The figure for A21G U25A G70C U78A is 0.07; for G22U G33A A47G A77U it is 0.06; for A21G G63U G70A it is 0.12.
In the case of A21G U26C U43C U66C U69A it was 0.38.
For G24A G42A U43C A57G C79U, the self-cleavage was 0.15.
For A21G U26C U54A A57G U80C, the self-cleavage was 0.2.
Take A21G U31A U49C U54C A56G: the self-cleavage was 0.28.
As for C23G A45G A77G, the self-cleavage came out at 0.06.
As to A21U A45G C59U, the self-cleavage is 0.34.
For A21G G33U U49C G73U, the self-cleavage worked out at 0.11.
A21U U48C U51C U74A: the self-cleavage was 0.06.
G22A U48A G52C A65G U76C: the self-cleavage turned out to be 0.05.
Take A21U U41A U51A: the self-cleavage came out at 0.13.
As to A21G U43C U48C U69C U72C, the self-cleavage was found to be 0.09.
For the variant C23U A64G U72G, the self-cleavage was 0.1.
For the variant A21U A35U U54G U60A U66C U80A, the self-cleavage was 0.09.
Consider C23U C32A U41A U51C U54C, for which the self-cleavage stood at 0.07.
The figure for A21G U26C A35U U69A U72C is 0.07; for A21G U41C U60C G61A it is 0.24.
Consider A21G U26C A35G A47G U58A, for which the self-cleavage is 0.26.
In the case of G22A A28G U48C it was 0.07; in that of A21G U49C A56U U67C, 0.2.
Turning to A21G U41A U48A, the self-cleavage came to 0.15.
As to A21G U26C A64U, the self-cleavage came out at 0.27.
Take A21G U43C A75U: the self-cleavage was determined as 0.15.
Take G24A U54C U69A: the self-cleavage amounted to 0.17.
For the variant G24A A35U A57G, the self-cleavage worked out at 0.06.
With A21G U25C U51C A64G U69C, the self-cleavage is 0.19.
As for A21G U51A U60C C71U, the self-cleavage is 0.22.
Take C23U U43A U58C U72A: the self-cleavage came out at 0.08.
In the case of A21G G36U U80C it was 0.24; in that of C23G G63U U66C, 0.16; in that of A21G U49A A56G U67C, 0.09.
For A21G U26C C40U U41C A47G U48C G52U, the self-cleavage is 0.09.
On to A21U C23G A35G U41A U78C, for which the self-cleavage was 0.19.
As for A21G U31C G36U U49C A56G U66G, the self-cleavage is 0.06.
Regarding A21G U69C A77C, the self-cleavage was found to be 0.27.
C23G A56G U58A A64G G73A: the self-cleavage is 0.02.
For the variant C23U U54C A65C, the self-cleavage is 0.43.
Turning to A21U U31C C71A, the self-cleavage was 0.1.
The figure for A21G U31G A65G is 0.25.
Turning to A21U A47U A65U, the self-cleavage worked out at 0.08.
Consider C23U U60A U76C U80A, for which the self-cleavage amounted to 0.08.
Consider G24A U51A A64G U67C U78C, for which the self-cleavage stood at 0.12.
Regarding A21U U41A A64G, the self-cleavage was 0.24.
The figure for G22A U25C U49C G63A U78C is 0.09; for A21U A45G A56U U66C it is 0.16.
On to G24A G30A A45G U51C A75G, for which the self-cleavage came out at 0.31.
Consider G22A A28U A35G G36U, for which the self-cleavage was determined as 0.12.
With A21G U48C U49C U74A C81U, the self-cleavage was found to be 0.06.
With A21G U43A U54A U58C G61A U67A, the self-cleavage was 0.21.
The figure for A21U U60C U78C is 0.11.
Take A21U C34U U60A U67C U69A: the self-cleavage was 0.11.
A21U A45G U54C A65G: the self-cleavage worked out at 0.29.
In the case of A21G G33U U43A it was 0.13; in that of A21U C23U C27U C39U U54C A75U, 0.08.
For A21G U25C G30A U66C U72C, the self-cleavage was 0.36.
With A21G U43A A45G G53A A64G, the self-cleavage came to 0.42.
For the variant G24A U25C A35U A56G, the self-cleavage came out at 0.07.
Consider G24A U49C A64G, for which the self-cleavage turned out to be 0.13.
With A21G U41C A56U C62U U72C, the self-cleavage is 0.13.
Take A21U U25C A65G U80C: the self-cleavage was determined as 0.26.
As for A21U A47G A56G U67C U69C, the self-cleavage was found to be 0.03.
In the case of A21G U31G C40U A45U G53U U80C it was 0.11.
As to A21G U41A U48C U60C U69C, the self-cleavage was 0.27.
For G24A U49C A65U, the self-cleavage came out at 0.13.

The record behind these values is the RNAGym collection of RNA variant scans (doi:10.1093/nar/gkz1192).
